{"source": "PubChem BioAssay AID588342", "about": "(National Center for Advancing Translational Sciences (NCATS), 2011)", "note": "Out of some 360,000 compounds screened, about 25,000 (6.9%) were called active. The shares of active, inactive and inconclusive entries below differ from those in the screen. Calls come from the whole dose curve; as a rule, active = well fitted inhibition curve with a large enough effect; inconclusive = small, poorly fitted or top-dose-only effect; inactive = flat fitted curve, though single readings scatter. Where the call is inconclusive, the potency comes from a doubtful curve fit. Potency is the fitted concentration of half-maximal effect; tags give direction and shape of the fitted curve."}
{"target": "Luciferin 4-monooxygenase (Photinus pyralis) (UniProt P08659)", "sequence (P08659 whole entry, looked up)": "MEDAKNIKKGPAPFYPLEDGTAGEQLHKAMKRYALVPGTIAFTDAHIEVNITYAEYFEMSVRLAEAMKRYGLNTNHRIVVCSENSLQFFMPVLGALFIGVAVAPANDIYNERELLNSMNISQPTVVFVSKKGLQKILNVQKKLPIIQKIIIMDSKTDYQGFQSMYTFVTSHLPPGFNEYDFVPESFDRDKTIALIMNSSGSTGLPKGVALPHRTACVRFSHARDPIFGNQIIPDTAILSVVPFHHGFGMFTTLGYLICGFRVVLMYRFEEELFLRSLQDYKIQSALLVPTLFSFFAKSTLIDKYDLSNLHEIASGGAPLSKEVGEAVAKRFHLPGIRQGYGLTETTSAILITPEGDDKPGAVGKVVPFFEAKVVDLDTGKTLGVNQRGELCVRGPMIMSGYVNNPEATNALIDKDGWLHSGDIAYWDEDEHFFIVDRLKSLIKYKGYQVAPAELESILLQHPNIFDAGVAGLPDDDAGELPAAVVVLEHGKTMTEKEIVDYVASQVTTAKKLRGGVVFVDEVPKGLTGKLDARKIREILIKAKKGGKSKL", "assay": "qHTS profiling assay for firefly luciferase inhibitor/activator using purifed enzyme and Km concentrations of substrates (counterscreen for miR-21 project); note: nearly all actives have a fitted effect of over 55% in size;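 for activity change, negative = inhibition: plate controls were vehicle for no effect and reference inhibitor for full effect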", "conditions": "purified FLuc, luminescence inhibition; activity change, negative = inhibition: at 57.5 µM (top of the series)", "summary_of_the_method": "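Biochemical qHTS of compounds, final roughly 60 µM downward over six points, against 10 nM purified firefly luciferase using Km concentrations of substrates (10 uM D-luciferin, 10 uM ATP) in Tris acetate pH 7.5 buffer; luminescence output.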"}
{"smiles": "COC(=O)c1ccsc1NC(=O)c1cccc(OC)c1", "Potency": "inconclusive: 37.9 µM [inhibitor, partial curve, poor fit]"}
{"smiles": "Clc1nccnc1N/N=C/c1ccc(Br)cc1", "Potency": "active: 9.53 µM"}
{"smiles": "CC(C)Oc1cccc(C(=O)C2CCCN(C(=O)CCc3cnn(C)c3)C2)c1", "note": "(stereo not drawn)", "Potency": "inconclusive: 8.49 µM [inhibitor, partial curve, poor fit]"}
{"smiles": "O=C(Cn1ccn(-c2cccc(Cl)c2)c(=O)c1=O)NCCc1ccccc1", "Potency": "inactive"}
{"smiles": "COc1ccccc1C(=O)Nc1ccc(-c2nnn(CC(=O)NCc3ccco3)n2)cc1", "Potency": "inactive"}
{"smiles": "CCOc1cc(/C=C2\\SC(N3CCCCC3)=NC2=O)ccc1O", "Potency": "active: 10.7 µM"}
{"smiles": "COc1ccccc1C(=O)Nc1c(-c2ccccc2)nc2ccccn12", "Potency": "inactive"}
{"smiles": "COc1ccc(CNC(=O)CCc2cn(Cc3cc(C)ccc3C)c3ccccc23)cc1OC", "Potency": "inactive"}
{"smiles": "Cc1ccc(NC(=O)Nc2ccc3c(c2)OCO3)c(Br)c1", "Potency": "inconclusive: 7.57 µM [inhibitor, partial curve, poor fit]"}
{"smiles": "CCCCn1ccnc1C(=O)c1cccc(S(=O)(=O)N2CC(C)CC(C)C2)c1", "note": "(stereo not drawn)", "Potency": "inactive"}
{"smiles": "CC(C)Sc1cc(Cl)nc(NC(=O)Nc2ccccc2)n1", "Potency": "inconclusive: 1.69 µM [inhibitor, full curve]"}
{"smiles": "CC(C)(C)c1ccc(-c2nc3cc(NC(=O)c4cc5ccccc5o4)ccc3o2)cc1", "Potency": "inconclusive: 15.1 µM [inhibitor, partial curve]"}
{"smiles": "c1ccc(-c2onc3cc4c(cc23)OCCO4)cc1", "activity change, negative = inhibition": "inactive: -10.4% [at 2.3 µM]"}
{"smiles": "CN(c1nc2ccccc2[nH]c1=O)C1CCCCC1", "Potency": "inconclusive: 7.57 µM [inhibitor, partial curve, poor fit]"}
{"smiles": "Cc1cc2nc(N(Cc3cccnc3)C(=O)c3ccc(Cl)s3)sc2cc1C", "Potency": "inactive"}
{"smiles": "Cc1ccnc(N2C(=O)c3ccccc3C2O)c1", "note": "(stereo not drawn)", "Potency": "active: 6.01 µM"}
{"smiles": "O=C(Nc1ccc(Cl)cc1)c1ccc2snnc2c1", "Potency": "inconclusive: 21.3 µM [inhibitor, single point]"}
{"smiles": "COc1ccccc1CN(Cc1nc2ccccc2c(=O)[nH]1)C(=O)Nc1ccc(C)cc1", "Potency": "inconclusive: 33.8 µM [inhibitor, partial curve, poor fit]"}
{"smiles": "O=C(Cc1ccccc1)Nc1nnc2n1CCS2", "Potency": "inactive"}
{"smiles": "CCN(Cc1ccccc1)Cc1c(O)ccc2oc(C)c(C(=O)Nc3ccccc3C)c12", "Potency": "inactive"}
{"smiles": "CC(Sc1nc2ccccc2[nH]1)C(=O)O", "note": "(stereo not drawn)", "Potency": "inactive"}
{"smiles": "CCn1cc(/C=C2/SC(=S)NC2=O)c(C)n1", "Potency": "inconclusive: 26.9 µM [inhibitor, single point]"}
{"smiles": "O=C(N/N=C/c1cccnc1)c1cc(Br)ccc1O", "Potency": "active: 4.78 µM"}
{"smiles": "CC1CN(S(=O)(=O)c2cccc(C(=O)OCC(=O)c3cccs3)c2)CC(C)O1", "note": "(stereo not drawn)", "Potency": "inconclusive: 37.9 µM [inhibitor, partial curve, poor fit]"}
{"smiles": "Cc1[nH]n(-c2ccccc2)c(=O)c1N=Nc1ccc(C(N)=O)cc1", "Potency": "inconclusive: 6.75 µM [inhibitor, partial curve, poor fit]"}
{"smiles": "CCn1cc(/C=N/NC(=O)c2cc3c(ccc4ccccc43)o2)c2ccccc21", "Potency": "inconclusive: 7.57 µM [inhibitor, full curve]"}
{"smiles": "CCn1cc(C(=O)OCC(=O)Nc2c(C)cccc2C)c(=O)c2ccc(C)nc21", "Potency": "inactive"}
{"smiles": "CC(=O)N(C)c1ccc(N=Nc2c(C)[nH]n(-c3ccccc3)c2=O)cc1", "Potency": "inactive"}
{"smiles": "COc1cccc(NC(=O)CCC(=O)Nc2cccc(OC)c2)c1", "Potency": "inactive"}
{"smiles": "COc1ccccc1-c1coc2cc(OCC(=O)OCc3ccccc3)ccc2c1=O", "Potency": "inconclusive: 21.3 µM [inhibitor, partial curve, poor fit]"}
{"smiles": "O=c1cc(-c2ccccc2)n2c(SCc3ccc(Br)cc3)nnc2[nH]1", "Potency": "inconclusive: 4.78 µM [inhibitor, partial curve, poor fit]"}
{"smiles": "CCc1ccccc1NC(=O)COc1ccc2oc(-c3ccc(OC)cc3)cc(=O)c2c1", "Potency": "inconclusive: 0.478 µM [inhibitor, full curve]"}
{"smiles": "COc1ccc(C2CC(c3cccs3)=NN2C(=O)CSc2nc3c(cnn3-c3ccccc3)c(=O)[nH]2)cc1", "note": "(stereo not drawn)", "Potency": "inconclusive: 23.9 µM [inhibitor, partial curve, poor fit]"}
{"smiles": "COc1ccc(-c2cc3nccc(-c4cc(Cl)c(C)cc4O)n3n2)cc1", "Potency": "inactive"}
{"smiles": "N#CC1=C(N)Oc2c(sc3ccccc23)C1c1ccco1", "note": "(stereo not drawn)", "Potency": "inconclusive: 21.3 µM [inhibitor, single point]"}
{"smiles": "Cc1nnc(SCC(=O)Nc2cccnc2Cl)s1", "Potency": "inactive"}
{"smiles": "CC(C)c1ccc(Nc2ccc(C(=O)O)cc2[N+](=O)[O-])cc1", "Potency": "inconclusive: 21.3 µM [inhibitor, partial curve]"}
{"smiles": "C/C(=N\\Nc1cccc([N+](=O)[O-])c1)c1cc(F)ccc1O", "Potency": "inconclusive: 16.9 µM [inhibitor, partial curve, poor fit]"}
{"smiles": "CCCc1cc2c(cc1NC(=O)c1ccc(C(C)(C)C)cc1)OCO2", "Potency": "inconclusive: 26.9 µM [inhibitor, partial curve, poor fit]"}
{"smiles": "Cc1ccccc1/C=N/N1CCN(c2ccccc2)CC1", "Potency": "active: 16.9 µM"}
{"smiles": "CCc1cc(=O)oc2c3c(cc(OCC(=O)Nc4cccnc4)c12)OC(C)(C)CC3", "Potency": "inconclusive: 26.9 µM [inhibitor, single point]"}
{"smiles": "O=C(CSc1ncccn1)n1c2c(c3ccccc31)CCCC2", "Potency": "inconclusive: 15.1 µM [inhibitor, partial curve]"}
{"smiles": "Cc1nc(SCc2ccc(O)c([N+](=O)[O-])c2)c([N+](=O)[O-])[nH]1", "Potency": "inconclusive: 26.9 µM [inhibitor, partial curve, poor fit]"}
{"smiles": "O=C(c1cc(-c2ccccc2)on1)N1CCCC1", "Potency": "active: 9.53 µM"}
{"smiles": "CCOc1ccc(-c2cccc(NS(=O)(=O)c3ccccc3C(F)(F)F)c2)nn1", "Potency": "inconclusive: 21.3 µM [inhibitor, single point]"}
{"smiles": "CCOc1ccc(/C=N/Nc2cc(=O)n(C)c(=O)n2C)cc1", "Potency": "inactive"}
{"smiles": "CCOC(=O)c1c(C)[nH]c(C=Nc2ccccc2)c1O", "Potency": "inactive"}
{"smiles": "Cc1c(Cl)cccc1NC(=O)Nc1c(C)n(C)n(-c2ccccc2)c1=O", "Potency": "inactive"}
{"smiles": "COc1cc(OC)c([N+](=O)[O-])cc1/C=N/NC(=O)c1ccncc1", "Potency": "inactive"}
{"smiles": "O=C(NCc1ccc(F)cc1)c1ccc2c(c1)nc1n2CCCCC1", "Potency": "inconclusive: 26.9 µM [inhibitor, partial curve]"}
{"smiles": "COc1ccc(NC(=O)C2=Cc3ccccc3OC2)cc1", "Potency": "active: 1.51 µM"}
{"smiles": "Cc1ccc(C)n1-c1ccc(C(=O)Nc2ccccc2)cc1", "Potency": "active: 9.53 µM"}
{"smiles": "O=C(Nc1ccccc1)c1ccc2c(O)c(S(=O)(=O)c3ccc(Cl)cc3)c(=O)[nH]c2c1", "Potency": "inconclusive: 12 µM [inhibitor, partial curve]"}
{"smiles": "CCOC(=O)C1C(=O)C=C(c2cccc(NS(C)(=O)=O)c2)CC1c1ccco1", "note": "(stereo not drawn)", "Potency": "inconclusive: 26.9 µM [inhibitor, single point]"}
{"smiles": "N#CC1=C(c2ccc(-c3ccccc3)cc2)COC1=O", "Potency": "inconclusive: 23.9 µM [inhibitor, single point]"}
{"smiles": "Cc1cc(NC(=O)c2cc(-c3cccc(Cl)c3)on2)no1", "Potency": "inactive"}
{"smiles": "COc1ccccc1C(=O)Nc1onc2c1CCCC2", "Potency": "active: 2.69 µM"}
{"smiles": "Cc1nc2ccccc2c2c1CC(C)S2", "note": "(stereo not drawn)", "Potency": "inconclusive: 23.9 µM [inhibitor, partial curve, poor fit]"}
{"smiles": "COc1ccc(C(=O)NCc2ccc(-c3nc4ccccc4s3)cc2)cc1OC", "Potency": "active: 1.35 µM"}
{"smiles": "COc1ccc(CN(C)Cc2c(O)ccc3cc(Br)ccc23)cc1OC", "Potency": "inconclusive: 26.9 µM [inhibitor, single point]"}
{"smiles": "NC(=O)C1CCN(CC(=O)Nc2cccc(C(=O)Nc3cccc(C(F)(F)F)c3)c2)CC1", "Potency": "inconclusive: 21.3 µM [inhibitor, partial curve, poor fit]"}
{"smiles": "Cc1ccc(NS(=O)(=O)c2ccc(/C=C/C(=O)O)cc2)cc1Cl", "Potency": "inconclusive: 30.1 µM [inhibitor, partial curve, poor fit]"}
{"smiles": "COc1ccc(N2CCN(c3nccs3)CC2)cc1", "Potency": "inconclusive: 37.9 µM [inhibitor, partial curve, poor fit]"}
{"smiles": "O=C1Nc2ccccc2N(O)N1c1ccc(Cl)c(Cl)c1", "Potency": "inconclusive: 10.7 µM [inhibitor, partial curve]"}
{"smiles": "Cc1[nH]c2ccccc2c1C(=O)C(=O)Nc1ccc2c(c1)OCO2", "Potency": "active: 16.9 µM"}
{"smiles": "COc1ccccc1/C=C1\\SC(=O)N(CCC(=O)NCCCn2ccnc2)C1=O", "Potency": "inconclusive: 30.1 µM [inhibitor, partial curve, poor fit]"}
{"smiles": "CCOc1ccc(NC(=S)Nc2ccc(F)cc2)cc1", "Potency": "inconclusive: 26.9 µM [inhibitor, partial curve, poor fit]"}
{"smiles": "Cc1cccc(NC(=O)c2ccc3nc(CCc4ccccc4)oc3c2)c1C", "Potency": "inconclusive: 26.9 µM [inhibitor, partial curve, poor fit]"}
{"smiles": "CCc1ccc(NC(=O)c2[nH]c(C)c(C(C)=O)c2C)cc1", "Potency": "active: 12 µM"}
{"smiles": "O=C(NCCc1ccccc1)c1nccc2ccccc12", "Potency": "inconclusive: 23.9 µM [inhibitor, single point]"}
{"smiles": "CCOc1cc(OCC)nc(S(C)(=O)=O)n1", "Potency": "inactive"}
{"smiles": "CCOC(=O)c1c(C)n(C)c2cc(Br)c(O)c(O)c12", "Potency": "inconclusive: 2.13 µM [inhibitor, full curve]"}
{"smiles": "COc1cc(C(=O)N/N=C/c2ccc(OC(=O)c3ccccc3Cl)c(OC)c2)ccc1O", "Potency": "inconclusive: 16.9 µM [inhibitor, partial curve]"}
